# According to publication PMC4336329 (PLoS ONE, 2015):
# The campaign covered roughly 310,000 compounds. About 14,000 (4.5%) showed an effect of 50% or more. The effect is printed as a negative number. This is one part of the list.
# Target: human ether-à-go-go-related gene (hERG) potassium channel (human, UniProt Q12809)
# Experiment: primary screen, population patch clamp on CHO cells stably expressing hERG
# 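Note: peak tail current of the secondary pulse compared with the same well before compound.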
# Sequence of human ether-à-go-go-related gene (hERG) potassium channel (Q12809 whole entry, looked up): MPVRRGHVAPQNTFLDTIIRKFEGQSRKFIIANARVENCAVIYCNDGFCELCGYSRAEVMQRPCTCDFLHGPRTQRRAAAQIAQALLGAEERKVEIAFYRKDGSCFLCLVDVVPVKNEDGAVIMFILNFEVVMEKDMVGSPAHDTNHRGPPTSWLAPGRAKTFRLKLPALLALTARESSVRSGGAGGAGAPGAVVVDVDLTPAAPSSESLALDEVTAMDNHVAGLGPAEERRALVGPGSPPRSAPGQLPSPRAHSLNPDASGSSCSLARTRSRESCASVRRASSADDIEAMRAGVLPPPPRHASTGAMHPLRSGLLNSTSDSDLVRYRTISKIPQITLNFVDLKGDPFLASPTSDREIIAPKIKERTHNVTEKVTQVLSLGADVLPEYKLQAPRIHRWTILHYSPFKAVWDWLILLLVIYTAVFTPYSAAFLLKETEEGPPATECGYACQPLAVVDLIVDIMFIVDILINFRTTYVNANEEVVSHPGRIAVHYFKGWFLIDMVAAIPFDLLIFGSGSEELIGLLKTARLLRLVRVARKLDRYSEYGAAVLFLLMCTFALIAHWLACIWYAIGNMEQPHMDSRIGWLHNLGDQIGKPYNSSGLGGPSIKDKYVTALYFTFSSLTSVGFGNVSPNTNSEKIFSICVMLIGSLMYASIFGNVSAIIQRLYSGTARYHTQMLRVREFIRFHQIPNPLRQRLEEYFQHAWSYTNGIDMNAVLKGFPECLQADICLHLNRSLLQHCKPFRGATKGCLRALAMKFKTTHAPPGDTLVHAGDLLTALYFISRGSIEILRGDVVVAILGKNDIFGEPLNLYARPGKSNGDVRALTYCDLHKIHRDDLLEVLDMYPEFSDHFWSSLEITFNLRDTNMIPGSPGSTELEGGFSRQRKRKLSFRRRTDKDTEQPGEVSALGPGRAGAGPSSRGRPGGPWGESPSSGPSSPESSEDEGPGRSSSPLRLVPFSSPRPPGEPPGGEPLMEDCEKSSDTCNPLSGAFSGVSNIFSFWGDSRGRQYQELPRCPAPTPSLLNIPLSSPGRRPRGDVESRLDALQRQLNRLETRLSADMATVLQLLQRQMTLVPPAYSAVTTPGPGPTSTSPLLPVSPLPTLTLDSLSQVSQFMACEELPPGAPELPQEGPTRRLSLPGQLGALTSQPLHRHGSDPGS
row,SMILES,"hERG current change (%, negative = inhibition) at 10uM [%]"
1,CNc1oc(-c2cccs2)nc1C#N,-1.58
2,O=C(CNC(=O)[C@@H]1Cc2ccccc2CN1)NCc1ccco1,4.85
3,CC(C)N1C(=O)/C(=C/C=C/c2ccco2)C(=O)N(Cc2ccco2)C1=O,8.31
4,COc1cc(NC(=O)c2ccc3c(c2)C(=O)N(CCC(C)C)C3=O)c(C(=O)O)cc1OC,20.5
5,CC(C)Oc1cccc(C(=O)C2CCCN(C(=O)c3ccc4c(c3)OCO4)C2)c1 (stereo not shown),-26.9
6,O=C(NCCCNC(=O)c1cnccn1)c1cccc(F)c1,10.2
7,CCOc1ccc(C(=O)Nc2ccc3[nH]ncc3c2)cc1,24.1
8,CCOc1ccccc1NC(=O)Cn1c(=O)c(OCC)nc2cnccc21,5.65
9,Cc1cc(Cl)ccc1C(=O)C1CCCN(C2CCSCC2)C1 (stereo not shown),-74.3
10,Cn1c(N)c(C(=O)CSc2nc(C3CC3)n(-c3ccccc3)n2)c(=O)[nH]c1=O,-3.17
11,CCC1CCc2c(sc(NC(C)=O)c2C#N)C1 (stereo not shown),1.72
12,CCN(CC)S(=O)(=O)c1ccc(OC)c(NC(=O)CSc2cc(C)ccc2C)c1,-13.3
13,CCOc1ccc(NC(=O)CN(c2ccc(OCC)cc2)S(=O)(=O)c2c(C)[nH]c(=O)[nH]c2=O)cc1,16.2
14,Cc1nc(SCc2ccc(C(=O)O)cc2)c2c(C)c(C)sc2n1,-10.3
15,Cc1nnc(SCC(=O)N(Cc2ccccc2)C(C)(C)C)[nH]c1=O,7.87
16,Cn1c(=S)ccc2ccccc21,9.22
17,CN(C)c1nc(Oc2ccc(=O)[nH]n2)nc(N2CCCCC2)n1,-0.603
18,COC(=O)/C(=C\c1ccc2c(c1)c1ccccc1n2C)NC(=O)c1ccccc1,-7.06
19,CC1C(=O)N(Cc2ccc(F)cc2)c2ccccc2N1C(=O)c1c(F)cccc1F (stereo not shown),4.55
20,CSc1n[nH]c(NCc2ccc(C)cc2)n1,8.19
21,O=C(NCCc1ccccc1)c1cccc(S(=O)(=O)NCc2ccccc2)c1,-47.7
22,CCN(CC(=O)Nc1c(F)cccc1F)C(=O)c1ccc(N2CCCCC2)c([N+](=O)[O-])c1,-39.2

row,SMILES,"hERG current change (%, negative = inhibition) at 10uM [%]"
1,CC(C)n1c(CNC(=O)c2ccccc2)nc2ccccc21,-3.26
2,COc1ccc(OCC#CCn2ccnc2)cc1.O=C(O)C(=O)O,13.5
3,COc1ccc(OC)c(NC(=O)C(=O)NNC(=O)c2cccs2)c1,10.9
4,COc1cccc(OCc2cc(C(=O)NCc3cnc4ccccn34)no2)c1,-23.2
5,Cc1noc(C)c1CSc1nnc(-c2cccnc2)n1C1CCCCC1C (stereo not shown),-20
6,Cc1ccc(CSCC(=O)N(CCC(C)C)c2c(N)n(Cc3ccccc3)c(=O)[nH]c2=O)cc1,-32.1
7,CCOC(=O)c1cc(C)n(CCc2ccccc2)c1C,-3.8
8,O=C(Nc1ccc(Br)cc1)c1cccc(N2C(=O)C3C4C=CC(C4)C3C2=O)c1 (stereo not shown),-48.8
9,Cc1nc(C(=O)Nc2ccccc2)sc1C(=O)Nc1ccccc1,-1.18
10,Cc1cc(S(=O)(=O)c2ccc([N+](=O)[O-])cn2)ccc1Br,15.9
11,Nc1c(-c2ccccc2Cl)cnn1-c1cccc([N+](=O)[O-])c1,-49.4
12,COc1cc(-c2noc(C3CCCN(S(=O)(=O)c4cccc(Cl)c4)C3)n2)cc(OC)c1OC (stereo not shown),-1.7
13,O=C(NCc1ccccc1)C1CCN(S(=O)(=O)c2cc([N+](=O)[O-])ccc2Cl)CC1,-7.61
14,O=C(NCCCO)c1ccc2[nH]c3ccccc3c2c1,16.1
15,O=C(Oc1cc(-c2ccccc2)no1)c1ccc(Cl)cc1,3.62
16,COc1ccc(OC)c(/C=C2\SC(=S)N(NS(=O)(=O)c3ccccc3)C2=O)c1,-4.44
17,CC(C)c1ccc2c(c1)C1(NN=C(c3ccccc3)S1)C(=O)N2 (stereo not shown),7.69
18,CCn1c(/C=C/c2c(C)[nH]c3ccccc23)nc2ccccc2c1=O,-2.71
19,Cc1c(Cl)cccc1NS(=O)(=O)c1ccc2c(c1)C1C=CCC1C(c1ccc(C(=O)O)cc1)N2 (stereo not shown),34.3
20,CCOc1ccccc1/C=C(/NC(=O)c1ccccc1)C(=O)NC(C)c1ccccc1 (stereo not shown),-16.1
21,O=C(c1cnn2c(C(F)F)cc(C3CC3)nc12)N1CCOCC1,5.6
